Test results from publication PMC4336329 (PLoS ONE, 2015).
The whole screen tested about 310,000 compounds, of which about 14,000 (4.5%) showed an effect of 50% or more. The effect is printed as a negative number. The list shows a part of the results.

These compounds were tested against human ether-à-go-go-related gene (hERG) potassium channel (human, UniProt Q12809) (assay: primary screen, population patch clamp on CHO cells stably expressing hERG).
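Also: peak tail current of the secondary pulse compared with the same well before compound.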

Chain of human ether-à-go-go-related gene (hERG) potassium channel (Q12809 whole entry, looked up): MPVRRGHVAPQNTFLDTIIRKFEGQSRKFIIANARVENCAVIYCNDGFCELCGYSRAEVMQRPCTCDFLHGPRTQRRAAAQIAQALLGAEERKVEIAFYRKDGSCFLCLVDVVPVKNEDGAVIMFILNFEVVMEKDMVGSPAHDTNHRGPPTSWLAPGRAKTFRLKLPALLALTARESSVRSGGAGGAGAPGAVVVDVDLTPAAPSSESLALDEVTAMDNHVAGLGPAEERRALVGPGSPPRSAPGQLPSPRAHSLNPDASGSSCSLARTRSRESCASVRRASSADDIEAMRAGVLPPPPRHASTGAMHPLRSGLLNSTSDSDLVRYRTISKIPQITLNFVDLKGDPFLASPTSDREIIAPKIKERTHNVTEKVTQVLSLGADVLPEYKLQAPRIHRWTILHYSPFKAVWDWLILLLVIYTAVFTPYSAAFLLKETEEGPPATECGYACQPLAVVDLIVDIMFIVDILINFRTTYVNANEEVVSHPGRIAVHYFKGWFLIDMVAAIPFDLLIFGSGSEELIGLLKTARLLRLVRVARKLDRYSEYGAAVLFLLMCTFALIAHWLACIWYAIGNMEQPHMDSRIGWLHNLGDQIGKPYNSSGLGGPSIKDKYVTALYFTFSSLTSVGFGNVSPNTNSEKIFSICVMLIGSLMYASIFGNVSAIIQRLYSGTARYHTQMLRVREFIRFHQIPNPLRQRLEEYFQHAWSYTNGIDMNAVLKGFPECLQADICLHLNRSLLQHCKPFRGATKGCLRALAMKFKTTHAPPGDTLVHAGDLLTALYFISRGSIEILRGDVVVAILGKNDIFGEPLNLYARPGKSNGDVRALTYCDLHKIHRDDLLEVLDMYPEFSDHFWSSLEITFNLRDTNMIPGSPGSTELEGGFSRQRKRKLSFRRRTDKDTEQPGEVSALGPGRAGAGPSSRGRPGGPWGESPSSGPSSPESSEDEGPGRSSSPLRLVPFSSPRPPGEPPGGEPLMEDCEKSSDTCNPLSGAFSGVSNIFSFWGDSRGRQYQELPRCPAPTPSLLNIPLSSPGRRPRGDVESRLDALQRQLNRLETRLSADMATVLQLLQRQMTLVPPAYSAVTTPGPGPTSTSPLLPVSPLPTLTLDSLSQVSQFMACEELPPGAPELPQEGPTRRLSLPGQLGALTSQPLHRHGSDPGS

Structure (SMILES) | hERG current change (%, negative = inhibition) at 10uM [%]
CCOC(=O)c1cccc(NC(=O)N[C@@H](C)C(=O)OC)c1 | 9.63
CC(=O)Nc1ccc(S(=O)(=O)NCCC(=O)Nc2ccc(C)cn2)cc1 | 20.6
O=C(CNc1cc(S(=O)(=O)N2CCCC2)ccc1OCC(F)(F)F)Nc1cc(Cl)cc(Cl)c1 | 6.5
CCN(CC)CCN=CC1=C(O)CNC1=O | 5.31
Cc1ccc(Cn2c(NCCc3ccccc3)nc3c2c(=O)n(C)c(=O)n3C)cc1 | 2.68
CCOc1ccc(C2N(c3ccc(Cl)cc3)C(=O)C3CCCN32)cc1OC (stereo not shown) | -20
CCS(=O)(=O)Nc1ccc(-c2ccc(NS(=O)(=O)CC)c(OC)c2)cc1OC | 0.884
CCC(C)c1ccc(NC(=O)c2cccnc2)cc1 (stereo not shown) | -8.68
CCc1ccc(-c2cc(C)no2)cc1S(=O)(=O)N1CCN(c2ccccn2)CC1 | 4.29
CCOC(=O)C1=C(C)N=c2s/c(=C\c3ccc(OCC(=O)O)cc3)c(=O)n2C1c1ccccc1 (stereo not shown) | -3.34
CCOc1c(C)cnc2c1c(=O)n(Cc1c(F)cccc1Cl)c(=O)n2C | -7.37
O=C(COc1ccccc1)N1CCN(c2ncnc3c2cnn3-c2ccccc2)CC1 | -73.6
CC(=O)c1ccc(S(=O)(=O)N2CCC(c3nnc(SCCN4CCCC4)n3C)CC2)cc1 | 11.6
CCCOc1ccc(N2C(=O)CC(N(CCCO)C(=O)CC)C2=O)cc1 (stereo not shown) | 18.4
COc1ccc(C)cc1NC(=O)Nc1ccncc1 | 6.61
COC(=O)Cc1c(C)c2ccc(OCC(=O)NCc3ccc4c(c3)OCO4)cc2oc1=O | 11.5
COCCN(CC(=O)Nc1cccc(C)c1C)C(=O)CN1C(=O)NC2(CCCCC2)C1=O | 13.8
CC(=O)c1c(N2CCCCC2)nc(=S)n(-c2ccccc2)c1C | 11.5
CCc1cc(CNC(=O)CC2C(=O)NCCN2Cc2ccc(-c3ccccc3)cc2)on1 (stereo not shown) | -28.4
CCC(C)C(Nc1ccc(C(=O)OC)cc1[N+](=O)[O-])C(=O)OC (stereo not shown) | -4.92
CN1C(C(=O)NCC2CC2)CC2Cn3c(nc4cc5ccccc5cc43)C21 (stereo not shown) | -21.2
O=C(NCc1cc(C(F)(F)F)cc(C(F)(F)F)c1)C1CC(c2ccccc2F)=NO1 (stereo not shown) | 7.64
CCCCn1c(SCC(=O)NC(C)CC)nc2ccc(N3CCOCC3)cc2c1=O (stereo not shown) | -12.8
N#Cc1ccccc1CN1C(=O)S/C(=C/c2cccn2-c2cccc(C(=O)O)c2)C1=O | 3.87
CC(=O)c1cccc(NC(=O)N2C[C@H]3C[C@@H](C2)c2cccc(=O)n2C3)c1 | 2.1
Cc1ccc2c(c1)COc1c3ccc(C(=O)N4CCOCC4)cc3nn1-2 | -10.9
CON(C)S(=O)(=O)c1cccc(C(=O)NC2CCSc3ccccc32)c1 (stereo not shown) | -9.64
O=c1[nH]c(=S)[nH]cc1S(=O)(=O)c1cccc(Cl)c1 | 7.48

Structure (SMILES) | hERG current change (%, negative = inhibition) at 10uM [%]
O=C(COc1ccccc1F)NC12CC3CC(CC(C3)C1)C2 | -11.8
CCN(C(=O)COC(=O)c1cncc(Br)c1)C1CCS(=O)(=O)C1 (stereo not shown) | 29.4
O=c1ccnc2n1COCS2 | 4.62
CCc1nnc(NC(=O)CCC(=O)NCc2ccc(OC)cc2)s1 | -1.92
COc1ccccc1CNC(=O)c1ccc(CS(=O)(=O)c2ccc(C)cc2)o1 | -23.6
Cl.NC(=NCCc1ccccc1)c1cccc([N+](=O)[O-])c1 | -57.7
CCS(=O)(=O)c1ccc(O)c(NC(=O)COc2ccc(Br)cc2)c1 | -3.73
CSCCC(NC(=O)c1ccc(Cl)cc1)C(=O)OCC(=O)Nc1ccc(C#N)cc1 (stereo not shown) | -34.2
CCc1ccccc1OCCCCN1CCCCC1.O=C(O)C(=O)O | -30
Cc1cccc(C(=O)Nc2cc(NC(=O)c3cccs3)ccc2C)c1 | 8.96
Cc1ccc(NC(=O)CSC(C)c2nc3ccccc3c(=O)[nH]2)cc1 (stereo not shown) | 12.1
CCSc1ncc(Cl)c(C(=O)Nc2ccccc2OC)n1 | 19
COc1ccc(CN(C(=O)/C=C/C(=O)c2ccc(OC)cc2O)C(C(=O)NC2CCCCC2)c2ccncc2)cc1 (stereo not shown) | -13.2
Cc1ccc(Oc2ccc(/C=N/O)cn2)cc1 | -1.45
COc1ccc(NC(=O)CS(=O)c2cccc(Cl)c2)cc1 (stereo not shown) | -3.23
COc1ccc(S(=O)(=O)Nc2ccccc2C(=O)NCc2cccnc2)cc1OC | 3.07
CCC(=O)N(Cc1cc(=O)[nH]c2ccccc12)c1ccc(C)cc1 | -39.3
COc1ccc(/C=C2\SC(=O)N(CCC(=O)NC3CCS(=O)(=O)C3)C2=O)cc1 (stereo not shown) | 5.13
COC(=O)c1cc2c(=O)n3ccccc3nc2n(Cc2cccnc2)c1=N | -64
Cc1ccc(Oc2nc(CN3CCOCC3)nc3sc4c(c23)CCC(C)C4)cc1C (stereo not shown) | 7.99
COc1ccccc1CC(=O)N1CCOCC1 | 21
C=CCN=C1CC(C)(C)CC(=O)/C1=C(\O)CCCN1C(=O)c2ccccc2C1=O | -23.5
O=C(N/N=C/c1cccc(O)c1)c1cc(C2CC2)nc2ccccc12 | 1.18
Cc1nc2ccccc2c(=O)n1NC(=O)c1ccc([N+](=O)[O-])cc1Cl | -14.8
O=C(O)CSC(C(=O)Nc1ccc(Br)cc1)c1ccc(Cl)cc1 (stereo not shown) | 15.3
Cc1ccc(C)c(NC(=S)NNC(=O)c2sccc2C)c1 | -1.62
CCO[C@@H]1OC(C(=O)NCc2ccccc2)=C[C@H](c2ccc(C(F)(F)F)cc2)[C@H]1CCCO | -38.9
